# Measured values reported in a collection of fitness landscapes (doi:10.1126/science.1257360).
# The other results are listed elsewhere or left out.
# B1: PhoQ; a variant is named by its letters at X, in order, P23837 (parent)
# chain: MKKLLRLFFPLSLRVRFLLATAAVVLVLSLAYGMVALIGYSVSFDKTTFRLLRGESNLFYTLAKWENNKLHVELPENIDKQSPTMTLIYDENGQLLWAQRDVPWLMKMIQPDWLKSNGFHEIEADVNDTSLLLSGDHSIQQQLQEVREDDDDAEMTHSVAVNVYPATSRMPKLTIVVVDTIPVELKSSYMVWSWFIYVLSANLLLVIPLLWVAAWWSLRPIEALAKEVRELEEHNRELLNPATTRELTSLVRNLNRLLKSERERYDKYRTTLTDLTHSLKTPLXXLQXXLRSLRSEKMSVSDAEPVMLEQISRISQQIGYYLHRASMRGGTLLSRELHPVAPLLDNLTSALNKVYQRKGVNISLDISPEISFVGEQNDFVEVMGNVLDNACKYCLEFVEISARQTDEHLYIVVEDDGPGIPLSKREVIFDRGQRVDTLRPGQGVGLAVAREITEQYEGKIVAGESMLGGARMEVIFGRQHSAPKDE
# Variants of: B1
# Assay: enrichment ratio after two sorts for PhoP signalling (ratio (wild type AVST 3.29)); higher = more functional
# Settings: with PhoP (E. coli)
row,Variant,enrichment ratio
1,SWDI,≤ 0.25
2,RLNH,≤ 0.25
3,WLFP,≤ 0.25
4,DNFN,≤ 0.25
5,IMYF,≤ 0.25
6,QLIV,≤ 0.25
7,RVHK,≤ 0.25
8,MGCM,4.9
9,MESV,24.5
10,RSPL,≤ 0.25
11,KMGQ,≤ 0.25
12,ADFK,≤ 0.25
13,EPGD,≤ 0.25
14,FSNR,≤ 0.25
15,NETG,≤ 0.25
16,VECF,≤ 0.25
17,VIIQ,≤ 0.25
18,GFWY,≤ 0.25
19,YLAG,≤ 0.25
20,SEIL,10.1
21,SNWY,≤ 0.25
22,YGWN,≤ 0.25
23,VCIG,≤ 0.25
24,VKCA,≤ 0.25

row,Variant,enrichment ratio
1,FGCG,≤ 0.25
2,WGKF,≤ 0.25
3,GWML,≤ 0.25
4,FYYV,≤ 0.25
5,KIAC,≤ 0.25
6,TVEC,2
7,RQQS,≤ 0.25
8,SMGA,≤ 0.25
9,NFDY,≤ 0.25
10,FEKH,≤ 0.25
11,KPIW,≤ 0.25
12,KVVW,≤ 0.25
13,IILT,≤ 0.25
14,LIFR,≤ 0.25
15,LGMT,≤ 0.25
16,ESQG,≤ 0.25
17,FIAN,≤ 0.25
18,RCND,≤ 0.25
19,YWKF,≤ 0.25
20,VGSA,≤ 0.25
21,LTSI,≤ 0.25
22,PPGK,≤ 0.25
23,WRVT,≤ 0.25
24,KTGA,≤ 0.25

row,Variant,enrichment ratio
1,RQNL,≤ 0.25
2,DHWQ,≤ 0.25
3,HNDS,≤ 0.25
4,HGYF,≤ 0.25
5,AVWM,≤ 0.25
6,SYQH,≤ 0.25
7,ERDH,≤ 0.25
8,PCWG,≤ 0.25
9,TNIC,≤ 0.25
10,YYYL,≤ 0.25
11,FAAC,≤ 0.25
12,MSVT,≤ 0.25
13,VDTW,≤ 0.25
14,MDEP,≤ 0.25
15,CSFH,≤ 0.25
16,RGNF,≤ 0.25
17,RCKF,≤ 0.25
18,RTFV,≤ 0.25
19,SGYW,≤ 0.25
20,GTRH,≤ 0.25
21,YPSR,≤ 0.25
22,YDMK,≤ 0.25
23,PAGG,≤ 0.25
24,STDV,≤ 0.25

row,Variant,enrichment ratio
1,WQQM,≤ 0.25
2,NQLA,≤ 0.25
3,NWKL,≤ 0.25
4,PCWC,≤ 0.25
5,VPQA,≤ 0.25
6,EFGC,≤ 0.25
7,LKRG,≤ 0.25
8,GMNG,≤ 0.25
9,MQEP,≤ 0.25
10,ILIY,≤ 0.25
11,ALMP,≤ 0.25
12,FHFN,≤ 0.25
13,PWLH,≤ 0.25
14,RKRS,≤ 0.25
15,MDLK,≤ 0.25
16,HADT,≤ 0.25
17,VQNV,≤ 0.25
18,WAFW,≤ 0.25
19,EGLP,≤ 0.25
20,DQPM,≤ 0.25
21,WFFY,≤ 0.25
22,MITM,4.1
23,APVI,≤ 0.25
24,HDRH,≤ 0.25

row,Variant,enrichment ratio
1,PDRC,≤ 0.25
2,PEIH,≤ 0.25
3,FIRP,≤ 0.25
4,PTCC,≤ 0.25
5,EHHF,≤ 0.25
6,PHTW,≤ 0.25
7,SDNL,≤ 0.25
8,HFSQ,≤ 0.25
9,ANVK,≤ 0.25
10,VQFH,≤ 0.25
11,WVDK,≤ 0.25
12,SQQQ,7.71
13,GIKP,≤ 0.25
14,RNAW,≤ 0.25
15,VQEL,≤ 0.25
16,LTCF,≤ 0.25
17,MHFH,≤ 0.25
18,MFMS,≤ 0.25
19,LEDS,≤ 0.25
20,NKKG,≤ 0.25
21,MCGW,≤ 0.25
22,VIWD,≤ 0.25
23,GCHS,≤ 0.25
24,HSMF,2.32

row,Variant,enrichment ratio
1,IGDI,≤ 0.25
2,KQRE,≤ 0.25
3,DGLA,≤ 0.25
4,GRRG,≤ 0.25
5,NVVC,≤ 0.25
6,PVPN,≤ 0.25
7,DQGC,≤ 0.25
8,FGQR,≤ 0.25
9,YMYK,≤ 0.25
10,PSIK,≤ 0.25
11,AYCY,≤ 0.25
12,FEFK,≤ 0.25
13,EDQP,≤ 0.25
14,IWDD,≤ 0.25
15,RAAL,≤ 0.25
16,YKKI,≤ 0.25
17,WILC,≤ 0.25
18,SYYL,≤ 0.25
19,NQKT,≤ 0.25
20,ILMI,≤ 0.25
21,IGME,≤ 0.25
22,CAPF,≤ 0.25
23,YFRY,≤ 0.25
24,TMCM,10

row,Variant,enrichment ratio
1,QMKK,≤ 0.25
2,ASTQ,3.55
3,YEHS,≤ 0.25
4,FCFM,≤ 0.25
5,NQDW,≤ 0.25
6,KDDC,≤ 0.25
7,LWNI,≤ 0.25
8,KMGW,≤ 0.25
9,SPNE,≤ 0.25
10,PISS,≤ 0.25
11,WRSQ,≤ 0.25
12,KDST,≤ 0.25
13,HSCK,≤ 0.25
14,YRWG,≤ 0.25
15,DQNR,≤ 0.25
16,RTTD,≤ 0.25
17,WTKS,≤ 0.25
18,IVKD,≤ 0.25
19,WMQP,≤ 0.25
20,LMKV,≤ 0.25
21,AGLV,12.7
22,TWFM,≤ 0.25
23,DYWQ,≤ 0.25
24,STRK,≤ 0.25

row,Variant,enrichment ratio
1,GYNM,≤ 0.25
2,AIRS,≤ 0.25
3,DTVW,≤ 0.25
4,MTAH,3.38
5,NTGE,≤ 0.25
6,AHWI,≤ 0.25
7,WTAP,≤ 0.25
8,LDID,≤ 0.25
9,ANII,8.54
10,YRCL,≤ 0.25
11,GHDH,≤ 0.25
12,SVNV,≤ 0.25
13,MNMS,≤ 0.25
14,PPLA,≤ 0.25
15,GKGW,≤ 0.25
16,YQGP,≤ 0.25
17,TLVT,≤ 0.25
18,KNVV,≤ 0.25
19,QLDK,≤ 0.25
20,KVHN,≤ 0.25
21,YDME,≤ 0.25
22,WTPD,≤ 0.25
23,AAHH,≤ 0.25
24,TYGA,≤ 0.25

row,Variant,enrichment ratio
1,HSGK,≤ 0.25
2,MSDF,≤ 0.25
3,GSAV,3.98
4,APHG,≤ 0.25
5,CLAV,≤ 0.25
6,TNPC,≤ 0.25
7,DKQQ,≤ 0.25
8,YLSH,≤ 0.25
9,CMSL,≤ 0.25
10,NQAK,≤ 0.25
11,RVDW,≤ 0.25
12,NSYF,≤ 0.25
13,MSIL,9.44
14,PQMF,≤ 0.25
15,SHMP,≤ 0.25
16,EQPM,≤ 0.25
17,AFGW,≤ 0.25
18,WYGE,≤ 0.25
19,WPSA,≤ 0.25
20,AMTI,11.6
21,GGSY,≤ 0.25
22,PSPW,≤ 0.25
23,YATE,≤ 0.25
24,PFCL,≤ 0.25

row,Variant,enrichment ratio
1,QEQL,≤ 0.25
2,IDWP,≤ 0.25
3,HPQI,≤ 0.25
4,DFTR,≤ 0.25
5,VQAP,≤ 0.25
6,YKSY,≤ 0.25
7,DKHW,≤ 0.25
8,GCGL,≤ 0.25
9,SLAD,≤ 0.25
10,THSG,8.93
11,YDQN,≤ 0.25
12,TGFE,≤ 0.25
13,VVCH,≤ 0.25
14,DMRR,≤ 0.25
15,PMHE,≤ 0.25
16,AEIT,2.48
17,DMMK,≤ 0.25
18,ESSR,≤ 0.25
19,FHTL,≤ 0.25
20,MVMI,≤ 0.25
21,PNAT,≤ 0.25
22,DQTL,≤ 0.25
23,HPKV,≤ 0.25
24,FQDH,≤ 0.25

row,Variant,enrichment ratio
1,TMQF,16.1
2,VILR,≤ 0.25
3,IDWQ,≤ 0.25
4,MTRE,≤ 0.25
5,GMWC,≤ 0.25
6,DNWM,≤ 0.25
7,MRYM,≤ 0.25
8,MRKC,≤ 0.25
9,VKGN,≤ 0.25
10,QTFT,6.63
11,YMYH,≤ 0.25
12,CSCY,≤ 0.25
13,KDCY,≤ 0.25
14,VYKN,≤ 0.25
15,RHCT,≤ 0.25
16,ADWM,≤ 0.25
17,HTQI,≤ 0.25
18,GYLR,≤ 0.25
19,SWPE,≤ 0.25
20,WIHW,≤ 0.25
21,KFTE,≤ 0.25
22,QSTC,≤ 0.25
23,EESI,≤ 0.25
24,NQKW,≤ 0.25

row,Variant,enrichment ratio
1,FDCQ,≤ 0.25
2,GYKA,≤ 0.25
3,SFGR,≤ 0.25
4,SRHH,≤ 0.25
5,SEPN,≤ 0.25
6,WKPF,≤ 0.25
7,FPHP,≤ 0.25
8,EAEA,≤ 0.25
9,KTQP,≤ 0.25
10,YYKE,≤ 0.25
11,TNFL,≤ 0.25
12,TYWV,≤ 0.25
13,ICPF,≤ 0.25
14,GWHS,≤ 0.25
15,LGMN,≤ 0.25
16,FFDF,≤ 0.25
17,WSYA,≤ 0.25
18,NYQK,≤ 0.25
19,LHMR,≤ 0.25
20,FWGY,≤ 0.25
21,HEYR,≤ 0.25
22,YSCV,15.6
23,NAPW,≤ 0.25
24,DKNV,≤ 0.25

row,Variant,enrichment ratio
1,CPVE,≤ 0.25
2,AMFP,≤ 0.25
3,DRII,≤ 0.25
4,FIIF,≤ 0.25
5,QCQR,≤ 0.25
6,DSES,≤ 0.25
7,YENT,≤ 0.25
8,CTSA,≤ 0.25
9,LDIM,≤ 0.25
10,NKIT,≤ 0.25
11,TLLK,≤ 0.25
12,EVWE,≤ 0.25
13,RHIE,≤ 0.25
14,TSNL,12.5
15,PNPW,≤ 0.25
16,WQRA,≤ 0.25
17,WNTK,≤ 0.25
18,DPLT,≤ 0.25
